Results taken from article PMC12820563.
This is one part of the list. The list includes weakly bound sequences.

What follows are sequences tested against T1, MBP-FoxP3dN (UniProt Q99JB6) (assay: PD-seq (MBP pull-down with sequencing)). Conditions: 20 mM Tris-HCl pH 7.5, 100 mM NaCl, 1.5 mM MgCl2, 0.4 uM protein, 0.1 uM dsDNA library, 30 min, room temperature, amylose pull-down; high values mean tight binding; double strand, one strand shown.
T1 sequence: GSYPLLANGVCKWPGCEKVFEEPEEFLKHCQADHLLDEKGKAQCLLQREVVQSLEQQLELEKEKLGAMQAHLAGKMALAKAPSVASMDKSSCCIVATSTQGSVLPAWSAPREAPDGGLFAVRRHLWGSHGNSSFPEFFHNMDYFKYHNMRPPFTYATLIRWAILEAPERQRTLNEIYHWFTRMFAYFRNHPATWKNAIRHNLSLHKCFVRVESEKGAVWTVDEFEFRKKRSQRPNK

| Sequence | binding signal (RPM ratio (pull-down/input)) |
| --- | --- |
| GATGATTGTTCTCCCAGCTGATGAATTATTGCCATCGAGTAAACAAATTTTCCTAATCTTTCTGTTCAAGCGCCATCTAC | 2.93 |
| GATGATTGTTCTCCCAGCTGATGAATTTTAAATATCGAGTAAACAAATTTTCCTAATCTTTCTGTTCAAGCGCCATCTAC | 0.403 |
| GATGATTGTTCTCCCAGCTGATGAATTTCTCACCTCGAGTAAACAAATTTTCCTAATCTTTCTGTTCAAGCGCCATCTAC | 0.261 |
| GATGATTGTTCTCCCAGCTGATGAATTTACTACCTCGAGTAAACAAATTTTCCTAATCTTTCTGTTCAAGCGCCATCTAC | 0.599 |
| GATGATTGTTCTCCCAGCTGATGAATTACCAAACTCGAGTAAACAAATTTTCCTAATCTTTCTGTTCAAGCGCCATCTAC | 0.349 |
| GATGATTGTTCTCCCAGCTGATGAATTGAAGGCTTCGAGTAAACAAATTTTCCTAATCTTTCTGTTCAAGCGCCATCTAC | 0.432 |
| GATGATTGTTCTCCCAGCTGATGAATTTCAGTGGTCGAGTAAACAAATTTTCCTAATCTTTCTGTTCAAGCGCCATCTAC | 0.44 |
| GATGATTGTTCTCCCAGCTGATGAATTCTGAAGGTCGAGTAAACAAATTTTCCTAATCTTTCTGTTCAAGCGCCATCTAC | 0.201 |
| GATGATTGTTCTCCCAGCTGATGAATTAGCCCGATCGAGTAAACAAATTTTCCTAATCTTTCTGTTCAAGCGCCATCTAC | 0.188 |
| GATGATTGTTCTCCCAGCTGATGAATTCAAGGATTCGAGTAAACAAATTTTCCTAATCTTTCTGTTCAAGCGCCATCTAC | 0.248 |
| GATGATTGTTCTCCCAGCTGATGAATTACATGCATCGAGTAAACAAATTTTCCTAATCTTTCTGTTCAAGCGCCATCTAC | 1.56 |
| GATGATTGTTCTCCCAGCTGATGAATTGTTTAACTCGAGTAAACAAATTTTCCTAATCTTTCTGTTCAAGCGCCATCTAC | 0.898 |
| GATGATTGTTCTCCCAGCTGATGAATTAGCAGCGTCGAGTAAACAAATTTTCCTAATCTTTCTGTTCAAGCGCCATCTAC | 0.645 |
| GATGATTGTTCTCCCAGCTGATGAATTAGGGCCTTCGAGTAAACAAATTTTCCTAATCTTTCTGTTCAAGCGCCATCTAC | 1.51 |
| GATGATTGTTCTCCCAGCTGATGAATTACTCACCTCGAGTAAACAAATTTTCCTAATCTTTCTGTTCAAGCGCCATCTAC | 0.349 |
| GATGATTGTTCTCCCAGCTGATGAATTGGAATTTTCGAGTAAACAAATTTTCCTAATCTTTCTGTTCAAGCGCCATCTAC | 0.431 |
| GATGATTGTTCTCCCAGCTGATGAATTTAATCTTTCGAGTAAACAAATTTTCCTAATCTTTCTGTTCAAGCGCCATCTAC | 0.311 |
| GATGATTGTTCTCCCAGCTGATGAATTTGCCCTTTCGAGTAAACAAATTTTCCTAATCTTTCTGTTCAAGCGCCATCTAC | 0.505 |
| GATGATTGTTCTCCCAGCTGATGAATTGGGGACTTCGAGTAAACAAATTTTCCTAATCTTTCTGTTCAAGCGCCATCTAC | 0.416 |
| GATGATTGTTCTCCCAGCTGATGAATTGTGGGGTTCGAGTAAACAAATTTTCCTAATCTTTCTGTTCAAGCGCCATCTAC | 0.885 |
| GATGATTGTTCTCCCAGCTGATGAATTGCGGGGGTCGAGTAAACAAATTTTCCTAATCTTTCTGTTCAAGCGCCATCTAC | 0.984 |

| Sequence | binding signal (RPM ratio (pull-down/input)) |
| --- | --- |
| GATGATTGTTCTCCCAGCTGATGAATTGATCCAGTCGAGTAAACAAATTTTCCTAATCTTTCTGTTCAAGCGCCATCTAC | 0.283 |
| GATGATTGTTCTCCCAGCTGATGAATTCTAGCACTCGAGTAAACAAATTTTCCTAATCTTTCTGTTCAAGCGCCATCTAC | 0.533 |
| GATGATTGTTCTCCCAGCTGATGAATTGCATATGTCGAGTAAACAAATTTTCCTAATCTTTCTGTTCAAGCGCCATCTAC | 1.46 |
| GATGATTGTTCTCCCAGCTGATGAATTCTCGCGATCGAGTAAACAAATTTTCCTAATCTTTCTGTTCAAGCGCCATCTAC | 0.472 |
| GATGATTGTTCTCCCAGCTGATGAATTAGCCGTTTCGAGTAAACAAATTTTCCTAATCTTTCTGTTCAAGCGCCATCTAC | 0.47 |
| GATGATTGTTCTCCCAGCTGATGAATTACAGAAATCGAGTAAACAAATTTTCCTAATCTTTCTGTTCAAGCGCCATCTAC | 0.35 |
| GATGATTGTTCTCCCAGCTGATGAATTCACTCAATCGAGTAAACAAATTTTCCTAATCTTTCTGTTCAAGCGCCATCTAC | 0.294 |
| GATGATTGTTCTCCCAGCTGATGAATTTTAGAGCTCGAGTAAACAAATTTTCCTAATCTTTCTGTTCAAGCGCCATCTAC | 0.218 |
| GATGATTGTTCTCCCAGCTGATGAATTCTTCCGTTCGAGTAAACAAATTTTCCTAATCTTTCTGTTCAAGCGCCATCTAC | 0.185 |
| GATGATTGTTCTCCCAGCTGATGAATTATACCGATCGAGTAAACAAATTTTCCTAATCTTTCTGTTCAAGCGCCATCTAC | 0.367 |
| GATGATTGTTCTCCCAGCTGATGAATTAGTCCCATCGAGTAAACAAATTTTCCTAATCTTTCTGTTCAAGCGCCATCTAC | 0.565 |
| GATGATTGTTCTCCCAGCTGATGAATTAGTTGTTTCGAGTAAACAAATTTTCCTAATCTTTCTGTTCAAGCGCCATCTAC | 6.61 |
| GATGATTGTTCTCCCAGCTGATGAATTACTAGATTCGAGTAAACAAATTTTCCTAATCTTTCTGTTCAAGCGCCATCTAC | 0.313 |
| GATGATTGTTCTCCCAGCTGATGAATTATTGAAATCGAGTAAACAAATTTTCCTAATCTTTCTGTTCAAGCGCCATCTAC | 0.461 |
| GATGATTGTTCTCCCAGCTGATGAATTCCAGTCGTCGAGTAAACAAATTTTCCTAATCTTTCTGTTCAAGCGCCATCTAC | 0.493 |
| GATGATTGTTCTCCCAGCTGATGAATTCCGTGAATCGAGTAAACAAATTTTCCTAATCTTTCTGTTCAAGCGCCATCTAC | 0.272 |
| GATGATTGTTCTCCCAGCTGATGAATTCTTTCCTTCGAGTAAACAAATTTTCCTAATCTTTCTGTTCAAGCGCCATCTAC | 0.23 |
| GATGATTGTTCTCCCAGCTGATGAATTGGATTGCTCGAGTAAACAAATTTTCCTAATCTTTCTGTTCAAGCGCCATCTAC | 1.29 |
| GATGATTGTTCTCCCAGCTGATGAATTTACCTAGTCGAGTAAACAAATTTTCCTAATCTTTCTGTTCAAGCGCCATCTAC | 0.33 |
| GATGATTGTTCTCCCAGCTGATGAATTCGCCTGATCGAGTAAACAAATTTTCCTAATCTTTCTGTTCAAGCGCCATCTAC | 0.388 |
| GATGATTGTTCTCCCAGCTGATGAATTGCCTAGTTCGAGTAAACAAATTTTCCTAATCTTTCTGTTCAAGCGCCATCTAC | 0.527 |

| Sequence | binding signal (RPM ratio (pull-down/input)) |
| --- | --- |
| GATGATTGTTCTCCCAGCTGATGAATTAGTCAACTCGAGTAAACAAATTTTCCTAATCTTTCTGTTCAAGCGCCATCTAC | 0.728 |
| GATGATTGTTCTCCCAGCTGATGAATTTGAAAGTTCGAGTAAACAAATTTTCCTAATCTTTCTGTTCAAGCGCCATCTAC | 0.236 |
| GATGATTGTTCTCCCAGCTGATGAATTTCCGCTATCGAGTAAACAAATTTTCCTAATCTTTCTGTTCAAGCGCCATCTAC | 0.699 |
| GATGATTGTTCTCCCAGCTGATGAATTGATAGCTTCGAGTAAACAAATTTTCCTAATCTTTCTGTTCAAGCGCCATCTAC | 0.586 |
| GATGATTGTTCTCCCAGCTGATGAATTAAATTAATCGAGTAAACAAATTTTCCTAATCTTTCTGTTCAAGCGCCATCTAC | 0.314 |
| GATGATTGTTCTCCCAGCTGATGAATTTATAATGTCGAGTAAACAAATTTTCCTAATCTTTCTGTTCAAGCGCCATCTAC | 0.969 |
| GATGATTGTTCTCCCAGCTGATGAATTCTTTCAGTCGAGTAAACAAATTTTCCTAATCTTTCTGTTCAAGCGCCATCTAC | 0.202 |
| GATGATTGTTCTCCCAGCTGATGAATTTCCGTCGTCGAGTAAACAAATTTTCCTAATCTTTCTGTTCAAGCGCCATCTAC | 0.435 |
| GATGATTGTTCTCCCAGCTGATGAATTGGCTGCCTCGAGTAAACAAATTTTCCTAATCTTTCTGTTCAAGCGCCATCTAC | 0.602 |
| GATGATTGTTCTCCCAGCTGATGAATTACGATCCTCGAGTAAACAAATTTTCCTAATCTTTCTGTTCAAGCGCCATCTAC | 0.509 |
| GATGATTGTTCTCCCAGCTGATGAATTACCCTCTTCGAGTAAACAAATTTTCCTAATCTTTCTGTTCAAGCGCCATCTAC | 0.31 |
| GATGATTGTTCTCCCAGCTGATGAATTAGCCTAGTCGAGTAAACAAATTTTCCTAATCTTTCTGTTCAAGCGCCATCTAC | 0.301 |
| GATGATTGTTCTCCCAGCTGATGAATTCGCTTGGTCGAGTAAACAAATTTTCCTAATCTTTCTGTTCAAGCGCCATCTAC | 1.56 |
| GATGATTGTTCTCCCAGCTGATGAATTGACGGTATCGAGTAAACAAATTTTCCTAATCTTTCTGTTCAAGCGCCATCTAC | 0.612 |
| GATGATTGTTCTCCCAGCTGATGAATTGTCAGAATCGAGTAAACAAATTTTCCTAATCTTTCTGTTCAAGCGCCATCTAC | 0.223 |
| GATGATTGTTCTCCCAGCTGATGAATTCTTCCAATCGAGTAAACAAATTTTCCTAATCTTTCTGTTCAAGCGCCATCTAC | 0.246 |
| GATGATTGTTCTCCCAGCTGATGAATTACACTTGTCGAGTAAACAAATTTTCCTAATCTTTCTGTTCAAGCGCCATCTAC | 0.829 |
| GATGATTGTTCTCCCAGCTGATGAATTAGGACTCTCGAGTAAACAAATTTTCCTAATCTTTCTGTTCAAGCGCCATCTAC | 1.4 |
| GATGATTGTTCTCCCAGCTGATGAATTTTTTGTTTCGAGTAAACAAATTTTCCTAATCTTTCTGTTCAAGCGCCATCTAC | 0.423 |
| GATGATTGTTCTCCCAGCTGATGAATTCCAATTATCGAGTAAACAAATTTTCCTAATCTTTCTGTTCAAGCGCCATCTAC | 0.917 |
| GATGATTGTTCTCCCAGCTGATGAATTACCTGTATCGAGTAAACAAATTTTCCTAATCTTTCTGTTCAAGCGCCATCTAC | 0.553 |
